The values below come from PubChem BioAssay AID463173 (ICCB-Longwood Screening Facility, Harvard Medical School, 2010).

In all, about 52,000 compounds went through this assay and about 1,700 (3.3%) were called active. Cut-off read from the data, not from the text of the source: active = survival mostly below about 52% (no sharp cut-off); inactive = mostly above about 56%. The list shows a part of the results.

This assay relates to Wild type. Nature of the assay: growth inhibition of S. aureus wild type versus tarO mutant, primary screen, teichoic acid synthesis inhibitors, RN4220, OD600 (AID 463173). The following applies: S. aureus RN4220 wild type/DeltatarO growth, OD600, 18 h, active compounds read low, screened at 18.75 µg/mL (by protocol).
`CCCc1cc(=O)[nH]c(Nc2cc(Cl)cc(Cl)c2)n1`: the survival is inactive: 16%. As for `CCn1cc2nc(SCc3cc(C)ccc3C)n(Cc3ccc(Cl)cc3)c(=O)c2n1`, the survival is inactive: 88%. In the case of `Cc1nn(Cc2ccc(F)cc2)c(C)c1NC(=O)c1noc2c1CCc1ccccc1-2` it was inactive: 90%.

On to `CCN(CC)c1ccc(CN(C(=O)c2cc(=O)c3ccccc3o2)C2CCS(=O)(=O)C2)cc1` (stereo not drawn), for which the survival is inactive: 76%. Turning to `COc1cccc(CNC(=O)CN2C(=O)COc3ccc(S(=O)(=O)N4CCCCC4)cc32)c1`, the survival is inactive: 100%.

With `Cn1cc(S(=O)(=O)N2CCCC2)cc1C(=O)Nc1ccc(F)cc1F`, the survival was inactive: 86%.

Take `CCOC(=O)c1ccc(NC(=O)Cc2noc3ccc(C)cc23)cc1`: the survival is inactive: 79%. In the case of `O=c1ccn2c(n1)OC1C(O)C(CO)OC12` (stereo not drawn) it was inactive: 112%. In the case of `Nc1ccc2nc(-c3ccc(N)c(Cl)c3)[nH]c2c1` it was inactive: 117%. In the case of `O=C(C1CCN(S(=O)(=O)c2cccs2)CC1)N1CCN(c2ccccc2F)CC1` it was inactive: 142%; in that of `Cc1ccc(CNC(=O)CCCCCn2c(=O)c3sccc3n(CC(=O)N3CCCCC3C)c2=O)cc1` (stereo not drawn), inactive: 77%; in that of `O=C(CCCCCn1c(=O)[nH]c2ccccc2c1=O)N1CCN(c2cccc(C(F)(F)F)c2)CC1`, inactive: 77%. With `CCCCC12CN3CC(C)(CN(C1)C3c1ccc(OCc3ccccc3)cc1)C2=O` (stereo not drawn), the survival is inactive: 92%. The result for `CC1=C(C(=O)Nc2ccccc2Br)C2(CCC(C)CC2)OC1=O` (stereo not drawn) reads inactive: 83%; that for `Cc1ccc(-c2nc3sc(CCNC(=O)c4ccc(F)c(F)c4)c(C)n3n2)cc1`, inactive: 71%; that for `O=C(CC(c1ccccc1)C1CCCCC1=O)c1ccco1` (stereo not drawn), inactive: 108%. `Cc1ccccc1NC(=O)c1sc2nc(-c3cc4ccccc4oc3=O)[nH]c(=O)c2c1C`: the survival is inactive: 90%. In the case of `COc1ccc(/C=C/C(=O)NCc2ccccn2)cc1OC`, the survival was inactive: 89%. The result for `CCN(C(=O)Cn1c(C(=O)OC)cc2sccc21)c1cccc(C)c1` reads inactive: 73%; that for `FC(F)(F)c1cccc(Nc2nc3nonc3nc2Nc2ccc(Cl)cc2)c1`, active: -3%; that for `COc1ccc(C)cc1NC(=O)CN(C)S(=O)(=O)c1ccc2c(c1)c(=O)n(C)c(=O)n2C`, inactive: 81%. In the case of `Cc1ccccc1NC(=O)c1c(C)oc2ccc(O)c(CN3CCCCCC3)c12` it was inactive: 108%; in that of `CCC(CC)C(=O)Nc1ccc(S(=O)(=O)N2CCC(c3nc4ccccc4s3)CC2)cc1`, inactive: 87%; in that of `Cc1nc(-c2ccc(S(=O)(=O)N3CCN(c4ccccc4F)CC3)cc2)co1`, inactive: 74%. The result for `CC(C)NC(=O)c1ccc(CSc2nc3ccncc3n2Cc2cccc(F)c2)cc1` reads inactive: 73%; that for `CC1SC(=NC(=O)c2ccco2)NC1=O` (stereo not drawn), inactive: 100%; that for `CCCn1cc(S(=O)(=O)c2ccc(C)c(C)c2)c(=O)c2cc(F)c(N3CCCCC3)cc21`, inactive: 126%.

With `CC1CCCCN1C(=O)Cn1nnc2c(cnn2-c2ccccc2)c1=O` (stereo not drawn), the survival was inactive: 111%. Consider `CC1=C(c2ccc(C(C)C)cc2)S(=O)(=O)N=C1N1CCC(C(=O)NCc2ccc(C)o2)CC1`, for which the survival is inactive: 63%. The result for `O=C(NC1CCCCC1)c1ccc(CSc2nc3cccnc3n2Cc2ccccc2)cc1` reads inactive: 81%; that for `Cc1ccccc1-c1noc(-c2ccc(NCc3cccnc3)c([N+](=O)[O-])c2)n1`, inactive: 121%. `CC(=O)Nc1cccc(NC(=O)CSc2nccn2Cc2ccccc2)c1`: the survival was inactive: 65%.

As to `Cc1ccc(CN(Cc2cccn2-c2nnc(N3CCCC3=O)s2)C(=O)Nc2ccccc2Cl)cc1`, the survival was inactive: 115%.

Take `O=C(COc1ccccc1-c1nc(-c2ccccc2)no1)Nc1ccc([N+](=O)[O-])cc1`: the survival was inactive: 82%. In the case of `Cc1cc(C)c2c(NC(=O)c3ccccc3Cl)c(C(=O)NCc3ccc(Cl)cc3)sc2n1` it was inactive: 66%. The result for `Cc1c(CC(=O)NCCc2ccccc2)c(=O)oc2c(C)c3occ(C(C)(C)C)c3cc12` reads inactive: 84%. In the case of `CC(=O)c1cccc(NC(=O)Cn2ccn3nc(-c4ccccc4)cc3c2=O)c1` it was inactive: 68%; in that of `Cc1cc(Nc2cc(Cl)ccc2C)n2nc(-c3ccccc3)nc2n1`, inactive: 93%; in that of `COc1ccc(OCCCn2c(C3CC(=O)N(c4ccc(F)cc4)C3)nc3ccccc32)cc1` (stereo not drawn), inactive: 85%. For `CCOC(=O)c1c(C)[nH]c(CCC(=O)NCc2ccc(OC)cc2OC)c1C`, the survival is inactive: 85%. Regarding `Cc1nc2c(-c3ccc(F)cc3)c(C)nn2c(C)c1CCC(=O)NCc1ccc(F)cc1`, the survival was inactive: 92%. The result for `COc1ccc(OC)c(-c2noc(N3CCN(c4cccc(C(F)(F)F)c4)CC3)n2)c1` reads inactive: 136%. For `CC(C)CCNC(=O)c1cc(-c2cccnc2)nc2ccc(S(=O)(=O)N3CCC(C)CC3)cc12`, the survival was inactive: 71%.

For `O=C(CSc1nc2c([nH]c3ccccc32)c(=O)n1-c1ccccc1)N1CCCCC1`, the survival is inactive: 69%. In the case of `COc1ccc(NC(=O)c2nnn(-c3ccc(C(C)C)cc3)c2C)c(OC)c1` it was inactive: 90%. In the case of `O=C(CC1(O)C(=O)Nc2ccccc21)c1ccccc1O` (stereo not drawn) it was inactive: 91%; in that of `CCOc1ccc(-c2cc(C(=O)NCCc3ccc(C)cc3)c3ccccc3n2)cc1`, inactive: 64%; in that of `Cc1cccc(-n2c3nc(=O)[nH]c(=O)c-3cc3ccc(Cl)cc32)c1C`, inactive: 82%. The result for `Cc1ccc(NC(=O)CN2C(=O)c3ccccc3C2=O)c(C)c1` reads inactive: 103%. Regarding `Cn1c(CN2CCOCC2)nc2cc(NC(=O)c3ccccc3[N+](=O)[O-])ccc21`, the survival was inactive: 116%. Turning to `CCOc1cccc2sc(N3CCN(C(=O)c4ccco4)CC3)nc12`, the survival was inactive: 67%. Take `O=C(NCCCN1CCN(c2ccc(F)cc2)CC1)Nc1ccccc1Cl`: the survival was inactive: 133%.

`COc1cc(OC)c(NC(=O)c2ccc(-n3cnc4cccnc43)cc2)cc1Cl`: the survival was inactive: 64%. With `CCOC(=O)CC(NC(=O)Cn1nnc(-c2ccc(Cl)cc2)n1)c1ccc(OC)cc1` (stereo not drawn), the survival was inactive: 100%. With `CC(C)N(C(=O)CSc1nnc(-c2cccnc2)n1Cc1ccccc1)C(C)C`, the survival is inactive: 104%. For `COc1cc(NC(=O)CN2CCCN(Cc3cccc(F)c3)S2(=O)=O)cc(OC)c1`, the survival was inactive: 88%. As to `CCOC(=O)c1c(C)oc2nc(C)nc(NCCc3ccc(C)cc3)c12`, the survival is inactive: 73%. Take `CCCc1cc(N2CCN(c3ccccc3F)CC2)n2cnnc2n1`: the survival was inactive: 79%. The result for `Cc1ccc(CN2C(=O)c3ccccc3Sc3ccc(C(=O)N4CCOCC4)cc32)cc1` reads inactive: 70%; that for `Cc1cccc(C(=O)Nc2ccc(N3CC=C(c4ccccc4C)CC3)c(C(=O)O)c2)c1`, inactive: 66%; that for `CC1=C(C(=O)N2CCCCC2)C(c2ccc(Cl)cc2)n2c(nc3ccccc32)N1` (stereo not drawn), inactive: 69%. Regarding `CCCNC(=O)c1cc2n(n1)CCCN(Cc1ccc(C)cc1)C2=O`, the survival was inactive: 129%. Take `CCOc1ccc(NC(=O)CSc2oc(-c3ccco3)nc2S(=O)(=O)c2ccccc2)cc1`: the survival was inactive: 74%. The result for `Cc1ccc(NC(=O)c2oc3ccc(S(=O)(=O)N(C)C4CCCCC4)cc3c2C)c(C)c1` reads inactive: 102%.

With `COc1ccc(-c2nc(C)c(CCNC(=O)c3ccc(C(F)(F)F)cc3)s2)cc1OC`, the survival is active: -4%. The result for `COc1ccc(CNC(=O)CCCc2nnc3n(C(C)C)c(=O)c4sccc4n23)cc1` reads inactive: 102%.

Take `O=C(COc1ccccc1F)Nc1ccc2nc(SCC(=O)N3CCOCC3)sc2c1`: the survival is inactive: 92%. Consider `O=S(=O)(c1ccccc1)c1nc(-c2ccc(F)cc2)oc1NCc1ccccc1`, for which the survival is inactive: 84%. For the compound `COC(=O)C1C(c2ccccc2)C(C(=O)N2CCOCC2)C1c1ccccc1` (stereo not drawn), the survival is inactive: 128%. The result for `Cc1c(-c2nsc(NC(=O)c3cccs3)n2)nnn1-c1ccc(F)cc1` reads inactive: 72%. `COc1ccccc1CNC(=O)CCS(=O)(=O)c1ccc2c(c1)oc(=O)n2C`: the survival is inactive: 71%. In the case of `CCOC(=O)c1cccc(NC(=O)CSc2ncc3c(n2)-c2ccc(Cl)cc2N(Cc2ccccc2)S3(=O)=O)c1` it was inactive: 87%.

As to `CCOc1ccc(CNC(=O)CSc2c3c(nc4cc(Cl)ccc24)CCCC3)cc1`, the survival was inactive: 74%. Consider `O=C(NCCc1ccccc1)c1ccc2c(c1)nc1n2CCOC1`, for which the survival is inactive: 129%. The result for `O=C(CN1CCOCC1)Nc1nc(-c2ccc3c(c2)CCN3S(=O)(=O)c2ccccc2)cs1` reads inactive: 109%; that for `Cc1ccc(S(=O)(=O)Nc2cc(Cl)c3oc4c(c3c2)CCCC4)cc1`, inactive: 85%; that for `CCN(CC)S(=O)(=O)c1ccc2c(c1)N(CC(=O)Nc1c(C)cccc1C)C(=O)C1CCCN21` (stereo not drawn), inactive: 73%. `Cc1c(C)n(Cc2ccccc2)c2ccc(C(=O)N3CCN(c4ccccc4)CC3)cc12`: the survival is inactive: 78%. The result for `COc1ccc(C(=O)NC(c2ccccc2Cl)c2cc(Cl)c3cccnc3c2O)cc1` (stereo not drawn) reads inactive: 69%. As to `CCOC(=O)c1oc2c(c1C)-c1nn(Cc3cccc(Cl)c3)cc1CC2`, the survival is inactive: 66%. The result for `COC(=O)CN(C#N)c1nc(C)cc(C)n1` reads inactive: 107%. `CC(C)Oc1ccc(C(=O)N(Cc2ccc(N(C)C)cc2)Cc2ccco2)cc1`: the survival was inactive: 74%. For the compound `Cc1ccc(OCC(=O)NCC(=O)OCc2cc(=O)n3nc(C(C)C)sc3n2)cc1`, the survival is inactive: 113%.

For `COc1ccc(-c2nsc3c(N4CCCCC4C)ncnc23)cc1` (stereo not drawn), the survival was inactive: 124%. The result for `O=C(Nc1ccc(N2CCOCC2)cc1)C12CC3CC(CC(C3)C1)C2` reads inactive: 102%; that for `O=C(CCS(=O)(=O)c1ccc(Br)s1)Nc1cc(C(F)(F)F)cc(C(F)(F)F)c1`, inactive: 80%; that for `O=c1[nH]n(CC2COC(c3ccccc3)O2)c(=O)c2ccccc12` (stereo not drawn), inactive: 106%. For the compound `CCN(C(=O)Cn1c(=O)oc2cc(S(=O)(=O)N3CCCCCC3)ccc21)c1cccc(C)c1`, the survival was inactive: 83%.
